# The supplement of paper PMC3334620
# Whole data set: some 33,000 sequences, median “E-score (-0.5 to 0.5)” near -0.012, cut for the highest 2% near 0.27. The list shows a part of the results.
# Biological target: T1, Vhr1 (UniProt P40522)
# T1 sequence: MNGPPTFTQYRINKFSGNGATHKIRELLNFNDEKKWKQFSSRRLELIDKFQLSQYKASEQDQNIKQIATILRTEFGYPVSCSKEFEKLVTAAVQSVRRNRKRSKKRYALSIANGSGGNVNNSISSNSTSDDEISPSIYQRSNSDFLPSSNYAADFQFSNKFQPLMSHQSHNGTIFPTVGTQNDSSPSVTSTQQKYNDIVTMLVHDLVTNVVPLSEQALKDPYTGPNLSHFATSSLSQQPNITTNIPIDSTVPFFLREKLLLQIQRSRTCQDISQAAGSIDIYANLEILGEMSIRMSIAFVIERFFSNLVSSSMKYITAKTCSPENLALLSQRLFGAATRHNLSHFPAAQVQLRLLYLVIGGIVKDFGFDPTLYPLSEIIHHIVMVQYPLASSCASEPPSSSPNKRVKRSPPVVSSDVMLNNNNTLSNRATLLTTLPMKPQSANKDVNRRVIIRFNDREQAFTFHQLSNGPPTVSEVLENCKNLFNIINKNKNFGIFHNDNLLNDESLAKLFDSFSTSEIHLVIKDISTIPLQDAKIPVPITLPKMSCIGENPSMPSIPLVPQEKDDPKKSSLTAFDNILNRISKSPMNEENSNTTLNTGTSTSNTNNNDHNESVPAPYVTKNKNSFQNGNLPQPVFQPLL
# Assay: PBM E-score (8-mer binding enrichment) (E-score (-0.5 to 0.5)); higher = stronger / more preferred TF binding; most listed sequences are background and not binding sites
# Details: protein concentration: 200 nM; construct: GST-full length
# Procedure: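 Universal 'all 10-mer' protein binding microarrays (Agilent AMADID 015681) probed with GST-tagged S. cerevisiae TFs (full-length or DBD) made by in vitro transcription/translation (PURExpress), about 100-200 nM. Bound TF was detected with fluorescent anti-GST. Each ungapped 8-mer (which stands for itself and its reverse complement) is scored by the PBM enrichment score (E-score), a modified Wilcoxon-Mann-Whitney statistic from -0.5 to +0.5, computed with the Universal PBM Analysis Suite. Scale: above 0.35 generally sequence-specific binding.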
row,Sequence,PBM E-score
1,AGCGGAAG,-0.158
2,ACGCAGCC,0.0794
3,AAATTAGT,0.123
4,AAAAGCCG,-0.0948
5,CCGCGCAC,0.237
6,AATCAAAA,-0.0307
7,CAATTAAC,0.018
8,CCCGCCGG,0.134
9,ACGTAGTC,0.186
10,GAGGCAGA,-0.159
11,ATTTTGCA,-0.149
12,GACCGGCC,-0.045
13,AGCCGTAT,-0.0187
14,CCAGTGCC,-0.015
15,CAGTGCAC,0.0386
16,ACCTGACC,0.11
17,AAAAACAC,-0.0576
18,GACCCCAC,0.114
19,ATACTTTG,0.163
20,GGTCGTGA,-0.0896
21,GAGAACCC,-0.185
22,TCAATGGA,0.0718
23,CTCTTATA,0.0819
24,AGATGCAG,-0.0102
25,AATTATCT,-0.0991

row,Sequence,PBM E-score
1,ACCGAACT,-0.0256
2,CTGGTTTC,-0.0225
3,AGCACAAC,0.0833
4,AAGGCTGA,-0.151
5,AAATTGTG,-0.111
6,AAGAACAC,-0.0115
7,CATAGGTA,-0.0408
8,ATTTGAGC,-0.0968
9,ACAGCCCA,-0.0494
10,CCGACCGG,0.114
11,CGATGCAA,-0.175
12,ATGACATA,0.122
13,ATTCGATG,0.0921
14,ATCGCTCA,0.147
15,GTAGCGTA,0.13
16,AGTGTGCA,0.00584
17,CAAGACGA,-0.109
18,ACGTTGAT,0.214
19,CTGGCGGC,0.0715
20,AGGTAATA,0.102
21,GTGGCCCA,-0.0875
22,ATCCCTCG,0.147
23,AGGCCACA,-0.0918
24,CAATGATA,0.211
25,ATTCTTCG,-0.173

row,Sequence,PBM E-score
1,GAGGCCAC,-0.0743
2,CGTGATAA,-0.0969
3,AGTTCACC,0.0852
4,GTTTGGTA,0.259
5,CCTCACAG,0.0151
6,AAAGCCTT,-0.212
7,CTGCATAA,0.163
8,CAAGACCC,-0.0994
9,AAGACTCG,0.0518
10,CAGCGCAG,0.117
11,CACGCTGA,-0.0324
12,TCCCCAAA,0.106
13,CGATTGTC,-0.129
14,CAAAAGCC,-0.286
15,CTGATCGA,0.0718
16,AATACAGC,0.0596
17,ACTTCATC,-0.251
18,GAAGGTAC,-0.116
19,AGGTCGTG,-0.00814
20,CCGCGGCG,0.166
21,CCAGTGAA,-0.127
22,GACGCCTA,-0.169
23,CAACGGCA,-0.0309
24,GGCAGTTA,-0.136
25,GATCGCAA,0.0651

row,Sequence,PBM E-score
1,GCCACGTA,-0.189
2,GGGAAATA,-0.0494
3,CTATCTGC,-0.153
4,CCCGCAGC,-0.0814
5,GACAGATA,0.13
6,GTCATTAA,0.206
7,CAGCTACG,-0.0492
8,CATGCTTC,0.00013
9,CGCGGTCC,-0.137
10,AAATGAAC,-0.11
11,GTTGGTTA,0.146
12,AGTCTTAT,0.079
13,AGTTTACG,-0.034
14,CTACGCAA,-0.0494
15,CCTAGCAG,-0.126
16,TAGAAAAA,-0.206
17,AACTATGA,0.22
18,GAACGTCC,-0.154
19,CCATCGAC,0.0267
20,ATGGTAAC,0.151
21,AGGATAAC,-0.0693
22,ATCGATAC,0.149
23,AGGCCATA,-0.0523
24,ACTTAGTG,0.0972
25,AGTGATGG,0.0185

row,Sequence,PBM E-score
1,CACCTGGG,0.196
2,AGCCACGA,0.0851
3,GCGAGGAC,-0.0317
4,CGACGGAA,-0.0009
5,GTCACAAC,0.207
6,AGTTCATA,0.143
7,CTTGCTTC,-0.214
8,AAGCACCG,-0.0762
9,ATAGGGAT,0.0344
10,CACTGGAC,0.107
11,GCGCCTGA,0.048
12,AACGCGCG,0.148
13,CTCCGGAC,0.0766
14,ACCGAGGC,-0.0803
15,GACGGTCA,0.0404
16,GGTCTCGA,-0.0244
17,ATGGAAAT,-0.0238
18,GGCAGCGA,-0.0616
19,GGGATACA,0.0929
20,CCCCTAGA,-0.115
21,AGAAATCA,0.1
22,CCACACAC,0.143
23,CGAGCAAA,-0.143
24,AAACCGCG,0.176
25,CCGAGATA,-0.0394

row,Sequence,PBM E-score
1,GGCCAGAA,-0.00605
2,CGCTTCGA,-0.0202
3,CAGACGAA,0.206
4,ACAACAAA,0.0529
5,CCTCGGCA,-0.129
6,CTCTGGAA,-0.193
7,ACTACTTA,0.017
8,TCCCGGGA,-0.0779
9,CTCCCCAA,0.105
10,AATTATTA,0.0229
11,CTCCTCAA,-0.129
12,CGCTAGCC,-0.154
13,GTTCCCAA,-0.13
14,CCGATATA,-0.131
15,ACGTCTAA,-0.0983
16,CCTTTTCG,-0.151
17,ATCTAAAG,-0.0653
18,AGTTGCCG,-0.0574
19,CCGTTCAG,-0.184
20,CTTAGGCC,-0.102
21,CACGGTAA,-0.0299
22,CATTACGG,-0.0535
23,GGTCTAGA,-0.122
24,GCGCATAC,-0.0687
25,CGCAACAC,0.13

row,Sequence,PBM E-score
1,GCGCAACC,-0.0294
2,TAACGCAA,-0.0231
3,CCGCGTAG,0.11
4,GCTAAGCC,-0.0382
5,GTGCCATA,-0.174
6,GATGATGC,0.0431
7,CCGTCCAG,-0.0853
8,AAGAGTGG,-0.0723
9,GATCCCCC,-0.129
10,GGAACCAA,0.171
11,GGATACTA,0.0459
12,ACACAGGC,0.226
13,GAACGTTA,-0.323
14,GCCAAATA,-0.0475
15,GTGGTGCA,-0.217
16,GCCGATCC,0.0158
17,CCATCTGC,0.0983
18,AACCAGAC,-0.00075
19,GGTCGATA,0.0188
20,CGACTCCA,0.4
21,GAGATGAC,0.248
22,CCCCATCG,0.0191
